The campaign covered roughly 48,000 compounds. About 450 (0.94%) were called active. Not shown: some 19% with an inconclusive outcome. Calls come from the whole dose curve; as a rule, active = well fitted inhibition curve with a large enough effect; inconclusive = small, poorly fitted or top-dose-only effect; inactive = no such curve, though single readings can be large or run the other way. The list shows a part of the results.

The experiment in a line: Primary qHTS for Identification of Small Molecule Inhibitors of Huntingtin Promoter Activity. Note: nearly all actives have a fitted effect of over 50% in size. As to conditions: HEK293 HTT promoter firefly luciferase reporter (activity 0% = vehicle and -100% = no light), 24 h; series mostly up to 57.5 µM; activity change, negative = inhibition: at the top concentration. Summed up: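 Firefly luciferase readout (Dual-Glo, 10 min RT) after 24 h, 37 °C compound exposure (final up to 57.5 uM) of HEK293 reporter cells cultured 24 h beforehand; PTC124 at 50 uM final as control inhibitor; activity scaled vehicle 0%, zero RLU -100%.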
(qHTS replaces the single test concentration by a dilution series.)
Take `COc1cccc(/C=C/c2nc(C#N)c(N3CCCCC3)o2)c1`: the “activity change, negative = inhibition” value was inactive: 7.44%.

Regarding `O=C(C1CCCN(S(=O)(=O)c2cccc3nonc23)C1)N1CCN(c2cccc(Cl)c2)CC1` (stereo not given), the “activity change, negative = inhibition” value was inactive: -7.48%.

On to `CCc1ccc(CSc2nc(-c3ccccc3OC)nc3c2Cc2c(CO)cnc(C)c2O3)cc1`, for which the “activity change, negative = inhibition” value is inactive: -21.4%.

On to `CCOc1ccccc1CNc1ncnc2c1nc1n2CCCC1`, for which the “activity change, negative = inhibition” value was inactive: -27.9%.

For the compound `CSc1ccc(CCNC(=O)CCc2c(C)nc3c(-c4ccccc4)c(C)nn3c2C)cc1`, the “activity change, negative = inhibition” value is inactive: -34.8%.

For `Cc1ccccc1Cn1nc(C)c(NC(=O)c2cc(-c3ccc(F)cc3)on2)c1C`, the “activity change, negative = inhibition” value is inactive: -12.7%.

On to `COC(=O)c1ccc2c(=O)n(CCCCCC(=O)NCc3ccccc3)c(=O)[nH]c2c1`, for which the “activity change, negative = inhibition” value was inactive: -7.35%.

As for `Cc1cccc(-n2c3c(cc(-c4nc(-c5ccc(Cl)cc5)cs4)c2=O)C(=O)CC(C)(C)C3)c1`, the “activity change, negative = inhibition” value is inactive: -7.67%.

As to `C=C[C@H]1CN2CC[C@H]1C[C@@H]2[C@@H](O)c1ccnc2ccc(OC)cc12`, the “activity change, negative = inhibition” value was inactive: 3.49%.

In the case of `O=C(CN1CCSc2ccccc21)N1CCN(c2ccccc2)CC1`, the “activity change, negative = inhibition” value is inactive: 0%.

Turning to `CCOC(=O)c1c(NC(=O)/C=C/c2ccc(OC)c(OC)c2)sc(C(C)=O)c1C`, the “activity change, negative = inhibition” value is inactive: -7.94%.

Regarding `CCn1cc(C2N3CC4(CC)CN2CC(CC)(C3)C4=O)c2ccccc21` (stereo not given), the “activity change, negative = inhibition” value was inactive: -18.3%.

In the case of `CCOC(=O)c1cnc2cc(C(F)(F)F)ccc2c1N1CCN(c2ccc(F)cc2)CC1`, the “activity change, negative = inhibition” value was inactive: -19.3%.

`Cc1ccc(Cn2ccn(CC(=O)Nc3ccccc3C(F)(F)F)c(=O)c2=O)cc1`: the “activity change, negative = inhibition” value is inactive: -26.3%.

With `CCOc1ccc(CCNC(=O)CS(=O)Cc2nc(-c3ccc(C)cc3)oc2C)cc1OCC` (stereo not given), the “activity change, negative = inhibition” value was inactive: -32.5%.

`Cc1c(C(N)=O)cc([N+](=O)[O-])cc1[N+](=O)[O-]`: the “activity change, negative = inhibition” value was inactive: -9.79%.

Consider `COC(=O)c1ccccc1NC(=O)CSc1nc(-c2ccccc2)cc(C(F)(F)F)n1`, for which the activity change, negative = inhibition was inactive: -25.6% [at 11.5 µM].

Consider `CC(=O)c1ccc(NC(=O)c2ccc3c(c2)N(Cc2cccc(Cl)c2)C(=O)c2ccccc2S3(=O)=O)cc1`, for which the “activity change, negative = inhibition” value is inactive: -5.26%.

Consider `CCOC(=O)c1c(C)[nH]c(C)c1S(=O)(=O)N1CCC(C(=O)Nc2ccc(F)cc2F)CC1`, for which the “activity change, negative = inhibition” value is inactive: -26.1%.

Regarding `CCOc1ccccc1NC(=O)Cn1c(=O)n(CCCC(=O)NCCOC)c(=O)c2cc(OC)c(OC)cc21`, the “activity change, negative = inhibition” value is inactive: -14.2%.

For `Cc1cc(Cl)ccc1NC(=O)CN1C(=O)CSc2ccc(S(=O)(=O)N(C)C)cc21`, the “activity change, negative = inhibition” value is inactive: -19.9%.

Turning to `CCOCCc1nn2c(=O)cc(COC(=O)COc3ccccc3Cl)nc2s1`, the “activity change, negative = inhibition” value was inactive: -9.43%.

As for `Cc1ccc(NC(=O)CN2CCCN(Cc3ccccc3Cl)S2(=O)=O)c(C)c1`, the “activity change, negative = inhibition” value is inactive: -8.99%.

With `COc1ccc(CNC(=O)Cn2ccc3cc(S(=O)(=O)N4CCCCC4)ccc32)c(OC)c1`, the “activity change, negative = inhibition” value is inactive: -23.3%.

Turning to `CCn1c(=O)sc2cc(NC(=O)c3cccc(OC)c3)ccc21`, the “activity change, negative = inhibition” value was inactive: 12.8%.

With `CCN1CCN(c2nnc(-n3cccc3C(=O)Nc3cccc(OC)c3)s2)CC1`, the “activity change, negative = inhibition” value was inactive: 5.21%.

Turning to `CC(C)c1nn2c(=O)cc(COC(=O)CNC(=O)c3ccccc3Cl)nc2s1`, the “activity change, negative = inhibition” value is inactive: -18.2%.

For the compound `O=C(Cn1ccn(-c2ccc(F)c(F)c2)c(=O)c1=O)c1ccc(F)cc1`, the “activity change, negative = inhibition” value was inactive: -24.4%.

For the compound `CCOc1ccc(Cn2c(CNS(=O)(=O)c3c(C)cc(C)cc3C)nc3cccnc32)cc1`, the “activity change, negative = inhibition” value was inactive: -11.6%.

Turning to `CCC(C)n1c(SCc2ccc(C(C)(C)C)cc2)nc2ccsc2c1=O` (stereo not given), the “activity change, negative = inhibition” value was inactive: -4.69%.

On to `Cc1ccc(OCc2nc(-c3ccc(C(=O)N4CCN(c5cc(Cl)ccc5C)CC4)cc3)oc2C)cc1`, for which the “activity change, negative = inhibition” value is inactive: -9.21%.

In the case of `O=S(=O)(c1ccccc1)c1nc(-c2cccs2)oc1SCc1ccccc1Cl`, the “activity change, negative = inhibition” value was inactive: -18.2%.

With `Oc1cn2c(n1)Nc1ccc(Cl)c(Cl)c1C2`, the “activity change, negative = inhibition” value was inactive: -6.95% [at 25.2 µM].

Take `CCOC(=O)CC(=O)CSc1nc2ccccc2c(=O)n1-c1ccc(C(=O)NCCOC)cc1`: the “activity change, negative = inhibition” value is inactive: -12.5%.

`CS(=O)(=O)c1cccc(CNc2nc(Nc3ccc4c(c3)CCC(=O)N4)ncc2C(F)(F)F)c1`: the “activity change, negative = inhibition” value was inactive: 11.3%.

In the case of `CCOc1ccccc1NC(=O)CSc1nc2c([nH]c3ccccc32)c(=O)n1-c1ccccc1`, the “activity change, negative = inhibition” value was inactive: -27.6%.

`O=C(CC1NCCNC1=O)Nc1ccccc1F` (stereo not given): the “activity change, negative = inhibition” value was inactive: -15.7%.

For `CCOC(=O)c1c(-c2ccc(C)cc2)csc1NC(=O)c1cc(=O)c2cc(Cl)ccc2o1`, the “activity change, negative = inhibition” value was inactive: 0.223%.

Regarding `Cc1ccc(Cl)cc1N1CCN(C(=O)c2cc3c(=O)n(C)c4ccccc4c3s2)CC1`, the “activity change, negative = inhibition” value was inactive: -7.8%.

Turning to `O=C(C1CC1)N1CCc2cc(Br)cc(S(=O)(=O)N3CCN(c4cccc(Cl)c4)CC3)c21`, the “activity change, negative = inhibition” value is inactive: -1%.

With `CCOC(=O)c1cc(-c2ccccc2)n(-c2cccc(C(=O)Nc3cccc(C)c3)c2)c1C`, the “activity change, negative = inhibition” value was inactive: -20.4%.

Turning to `Cc1ccc(CSc2ccc3nnc(CCNS(=O)(=O)c4ccc(C)cc4)n3n2)cc1`, the “activity change, negative = inhibition” value was inactive: -24.4%.

Turning to `Cc1cccc(OCC(=O)OCc2cc(=O)n3nc(-c4cccs4)sc3n2)c1`, the “activity change, negative = inhibition” value is inactive: -11.6%.

For the compound `CCc1nn(Cc2cccc(F)c2)c(=O)c2cc3cc(C)ccc3n12`, the “activity change, negative = inhibition” value is inactive: -6.4%.

`NCC1CCC(C(=O)O)CC1` (stereo not given): the “activity change, negative = inhibition” value was inactive: -12.5%.

With `Cc1ccc(-n2ncc(C(=O)N3CCN(c4ccccn4)CC3)c2C2CCN(C(=O)OC(C)(C)C)CC2)cc1`, the “activity change, negative = inhibition” value was inactive: -0.215%.

Turning to `CCC(C)NC(=O)Cn1c(=O)n(-c2ccc(Cl)c(Cl)c2)c(=O)c2c(C)c(C(=O)N(CC)CC)sc21` (stereo not given), the “activity change, negative = inhibition” value was inactive: 0%.

With `COc1ccc(Nc2c(-c3ccc(C)o3)nc3ccc(Cl)cn23)cc1`, the “activity change, negative = inhibition” value is inactive: 6.15%.

For the compound `COC(=O)c1ccccc1NC(=O)Cn1c(=O)nc(-c2ccccc2)c2cc(Cl)ccc21`, the “activity change, negative = inhibition” value is inactive: -9.34%.

For `CCCCCCCCCCC[C@@H](C[C@@H]1OC(=O)[C@H]1CCCCCC)OC(=O)[C@H](CC(C)C)NC=O`, the “activity change, negative = inhibition” value was inactive: -5.34%.

Consider `Cc1cccc(C)c1Nc1c(-c2cccs2)nc2ncccn12`, for which the “activity change, negative = inhibition” value is inactive: -25%.

As for `CCCCC(=O)Nc1cc2nn(-c3ccc(OCC)cc3)nc2cc1C`, the “activity change, negative = inhibition” value is inactive: 13.2%.

Regarding `Cc1cccc(Cn2cc(S(=O)(=O)c3ccc(Cl)cc3)c(=O)c3cc4c(cc32)OCO4)c1`, the “activity change, negative = inhibition” value was inactive: -26.7%.

Regarding `CC(=O)c1ccc(NC(=O)c2ccc(NC(=O)CCS(=O)(=O)c3cccs3)cc2)cc1`, the “activity change, negative = inhibition” value was inactive: 63.3%.

In the case of `Cn1c(=O)c2c(SCC(=O)NCC3CCCO3)nc(-c3cccc(F)c3)nc2n(C)c1=O` (stereo not given), the “activity change, negative = inhibition” value was inactive: -11%.

For `CSc1ncc(C(=O)NCc2ccc(Cl)cc2)c(C(F)(F)F)n1`, the “activity change, negative = inhibition” value is inactive: -11.9%.

Take `Cc1nn(-c2ccccc2)c(OC(=O)c2ccc(F)cc2)c1S(=O)(=O)c1ccccc1`: the “activity change, negative = inhibition” value is inactive: -0.701%.

`CCOC(=O)CSc1nc(-c2ccccc2)cc(C(F)(F)F)c1C#N`: the “activity change, negative = inhibition” value is inactive: -3.91%.

With `CCN(C(=O)CCNC(=O)Cn1cnc2ccccc2c1=O)c1cccc(Cl)c1`, the “activity change, negative = inhibition” value is inactive: -3.32%.

Turning to `CCCn1cc(S(=O)(=O)c2ccc(C)cc2)c(=O)c2cc(OC)c(OC)cc21`, the “activity change, negative = inhibition” value is inactive: -20.3%.
